The supplement of paper PMC11876631
± gives the standard deviation of the averaged measurements. Laboratory Escherichia coli strains with one amino-acid change in an essential protein, pooled on minimal glucose agar with carbenicillin or gentamicin at twice the control MIC (plus kanamycin and chloramphenicol for the plasmids), 48 h. Fold change of barcode share against drug-free plates; higher = less susceptible. Active = above 20 in both replicates (the paper's putatively resistant). '<' = one read or none on drug, '>' = one read or none on a drug-free plate. Shares are relative, so most strains fall below 1 when a few take over. Listed are strains with at least 15 reads on both drug-free plates, and hits; most hits rest on fewer reference reads. Replicate rank correlation about 0.5. Edits are read from barcodes.

B1: secE; a variant is named by its letters at X, in order (parent)
chain: MSANTEAQGSGRGLEAMKWXXVXAXLLVAIVGNYLYRDIMLPLRALAVXILIAAAGGVALLTTKGKATVAFAREARTEVRKVIWPTRQETLHTTLIVAAVTAVMSLILWGLDGILVRLVSFITGLRF
B2: parE; numbered along this chain (parent)
chain: MTQTYNADAIEVLTGLEPVRRRPGMYTDTTRPNHLGQEVIDNSVDEALAGHAKRVDVILHADQSLEVIDDGRGMPVDIHPEEGVPAVELILCRLHAGGKFSNKNYQFSGGLHGVGISVVNALSKRVEVNVRRDGQVYNIAFENGEKVQDLQVVGTCGKRNTGTSVHFWPDETFFDSPRFSVSRLTHVLKAKAVLCPGVEITFKDEINNTEQRWCYQDGLNDYLAEAVNGLPTLPEKPFIGNFAGDTEAVDWALLWLPEGGELLTESYVNLIPTMQGGTHVNGLRQGLLDAMREFCEYRNILPRGVKLSAEDIWDRCAYVLSVKMQDPQFAGQTKERLSSRQCAAFVSGVVKDAFILWLNQNVQAAELLAEMAISSAQRRMRAAKKVVRKKLTSGPALPGKLADCTAQDLNRTELFLVEGDSAGGSAKQARDREYQAIMPLKGKILNTWEVSSDEVLASQEVHDISVAIGIDPDSDDLSQLRYGKICILADADSDGLHIATLLCALFVKHFRALVKHGHVYVALPPLYRIDLGKEVYYALTEEEKEGVLEQLKRKKGKPNVQRFKGLGEMNPMQLRETTLDPNTRRLVQLTIDDEDDQRTDAMMDMLLAKKRSEDRRNWLQEKGDMAEIEV

Variants of: B1
Test: barcode share on antibiotic plates over drug-free plates; higher = less susceptible
Conditions: with Escherichia coli (laboratory strain); antibiotic: carbenicillin; 2× MIC (3.1 µg/mL)
Protocol: (§1)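 A pool of E. coli strains, each edited to carry one amino-acid change in an essential protein, was grown for 48 h on minimal glucose agar with or without antibiotic; strain barcodes were sequenced; mean of two replicates.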

Variant | fold change of barcode share
VVVDV | 0.301 ± 0.084
VVVLA | 0.174 ± 0.085
VVVLD | 0.208 ± 0.041
VVVLP | 0.244 ± 0.11
VVVLQ | 0.261 ± 0.027
AVVLV | 0.811 ± 0.19
WVVLV | 0.79 ± 0.16
QVVLV | 0.444 ± 0.02
DVVLV | 0.809 ± 0.074
PVVLV | 0.65 ± 0.17
VVVLV V116P | 0.305 ± 0.19
VVVLW | 0.236 ± 0.034
VVVPV | 0.257 ± 0.1
VVVQV | 0.318 ± 0.13
VVVWV | 0.357 ± 0.13
VVWLV | 0.328 ± 0.1
VWVLV | 0.469 ± 0.081

Same assay, conditions: with Escherichia coli (laboratory strain); antibiotic: gentamicin; 2× MIC (MIC 0.45 µg/mL)

Variant | fold change of barcode share
VVVDV | 0.00216 ± 0.0013
VVVLA | 0.591 ± 0.26
VVVLD | 0.0149 ± 0.012
VVVLP | < 0.00584
VVVLQ | < 0.00719
AVVLV | 0.0434 ± 0.054
WVVLV | 0.0021 ± 0.0016
QVVLV | 0.00667 ± 0.0048
DVVLV | 0.0028 ± 0.0006
PVVLV | 0.00617 ± 0.0042
VVVLV V116P | < 0.018
VVVLW | < 0.00904
VVVPV | 0.00603 ± 0.0055
VVVQV | 0.00284 ± 0.0016
VVVWV | 0.235 ± 0.24
VVWLV | < 0.00738
VWVLV | 0.00419 ± 0.00089
VVALV | 0.00722 ± 0.0041
VVDLV | 0.0043 ± 0.0045

Variants of: B2
Test: as above
Conditions: with Escherichia coli (laboratory strain); antibiotic: carbenicillin; 2× MIC (3.1 µg/mL)
Protocol: as §1

Variant | fold change of barcode share
I116Q | 0.286 ± 0.12
V319A | 0.33 ± 0.21
V346P | 0.379 ± 0.065
L358Q | 0.452 ± 0.028
V346W | 0.5936 ± 0.003
L358W | 0.165 ± 0.0069
V346Q | 0.528 ± 0.43
L59A | 0.254 ± 0.018
L59D | 0.2359 ± 0.00088
V346A | 0.351 ± 0.03
L59P | 0.258 ± 0.04
V319Q | 0.283 ± 0.029
L358A | 0.235 ± 0.038
V346D | 0.318 ± 0.089
V119A | 0.289 ± 0.032
L283Q | 0.302 ± 0.12
I116A | 0.371 ± 0.062
L59Q | 0.35 ± 0.014

Same assay, conditions: with Escherichia coli (laboratory strain); antibiotic: gentamicin; 2× MIC (MIC 0.45 µg/mL)

Variant | fold change of barcode share
I116Q | 0.137 ± 0.19
V319A | 0.104 ± 0.14
V346P | 0.00342 ± 0.0025
L358Q | < 0.00548
V346W | 0.00641 ± 0.0026
V346Q | 0.00804 ± 0.0059
L59A | < 0.00156
L59D | 0.0284 ± 0.037
V346A | 0.00728 ± 0.0011
L59P | < 0.00408
V319Q | < 0.0042
L358A | < 0.00418
V346D | 0.0123 ± 0.0093
V119A | < 0.0121
L283Q | < 0.0112
I116A | 0.00607 ± 0.0043
L59Q | 0.006 ± 0.007
